# Test results as given in paper PMC4336329 (PLoS ONE, 2015).
# Screen size: about 310,000 compounds; about 14,000 (4.5%) showed an effect of 50% or more. The effect is printed as a negative number. This is one part of the list.
# Target: human ether-à-go-go-related gene (hERG) potassium channel (human, UniProt Q12809)
# Assay: primary screen, population patch clamp on CHO cells stably expressing hERG
# 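Further: peak tail current of the secondary pulse compared with the same well before compound.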
# human ether-à-go-go-related gene (hERG) potassium channel, sequence (Q12809 whole entry, looked up): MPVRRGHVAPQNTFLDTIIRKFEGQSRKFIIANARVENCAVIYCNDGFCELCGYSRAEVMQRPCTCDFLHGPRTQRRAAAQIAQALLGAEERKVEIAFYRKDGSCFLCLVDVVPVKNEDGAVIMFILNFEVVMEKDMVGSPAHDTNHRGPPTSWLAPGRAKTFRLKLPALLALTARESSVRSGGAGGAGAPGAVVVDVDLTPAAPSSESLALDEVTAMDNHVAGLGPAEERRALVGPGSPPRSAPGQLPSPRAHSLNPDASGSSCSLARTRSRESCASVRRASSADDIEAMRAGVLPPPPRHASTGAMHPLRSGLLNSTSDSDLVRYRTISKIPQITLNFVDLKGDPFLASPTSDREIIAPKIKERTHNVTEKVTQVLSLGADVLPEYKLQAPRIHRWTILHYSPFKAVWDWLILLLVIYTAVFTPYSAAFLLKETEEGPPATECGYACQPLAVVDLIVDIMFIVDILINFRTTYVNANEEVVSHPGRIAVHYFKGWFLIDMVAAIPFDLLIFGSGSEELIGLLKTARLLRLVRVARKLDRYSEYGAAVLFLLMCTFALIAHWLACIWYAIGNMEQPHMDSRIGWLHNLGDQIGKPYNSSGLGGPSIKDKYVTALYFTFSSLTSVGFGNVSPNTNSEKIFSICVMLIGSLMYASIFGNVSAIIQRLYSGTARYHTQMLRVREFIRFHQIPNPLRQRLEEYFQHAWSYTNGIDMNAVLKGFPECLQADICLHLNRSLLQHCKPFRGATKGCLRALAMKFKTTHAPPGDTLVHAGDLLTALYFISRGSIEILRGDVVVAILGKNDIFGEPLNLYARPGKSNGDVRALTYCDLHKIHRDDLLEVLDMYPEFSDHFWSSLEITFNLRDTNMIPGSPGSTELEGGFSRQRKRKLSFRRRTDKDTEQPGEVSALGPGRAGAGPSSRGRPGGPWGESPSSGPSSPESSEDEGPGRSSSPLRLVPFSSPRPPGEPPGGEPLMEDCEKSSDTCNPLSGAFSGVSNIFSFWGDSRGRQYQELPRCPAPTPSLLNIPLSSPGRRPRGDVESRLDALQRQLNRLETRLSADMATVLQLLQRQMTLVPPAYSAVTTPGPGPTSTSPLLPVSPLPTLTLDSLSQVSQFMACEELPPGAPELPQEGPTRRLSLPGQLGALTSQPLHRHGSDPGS
row,Compound,"hERG current change (%, negative = inhibition) at 10uM [%]"
1,CCOc1cccc(CN2CCC(CCC(=O)NC3CC3)CC2)c1O,-70.3
2,COC(=O)C1=C(C)NC(=O)CC1c1cccc(OC)c1OC (centres unmarked),-8.79
3,Cn1cc(S(=O)(=O)c2ccccc2)n(C)c1=O,12.8
4,C/C(CC(=O)Nc1ccc(Cl)cc1Cl)=N\NC(N)=S,-14.3
5,COc1cccc(-c2ncc3ccccc3c2COC(=O)c2ccc(Br)cc2)c1,17.6
6,O=C(NCc1ccc(Cl)cc1)C1CCN(c2cnccn2)CC1,-59.9
7,O=C1CCc2cc(S(=O)(=O)NCc3ccccc3Cl)ccc2N1,-23.4
8,CC1(CC(=O)N/N=C/c2ccc(-c3ccc(Cl)cc3)o2)OCCO1,1.13
9,CCCNC(=O)c1oc2ccc3c(c2c1C)C=CC(C)(C)O3,0.704
10,c1ccc(CCSc2nccn2-c2ccccc2)cc1,-8.04
11,CC(=O)Nc1ccc(OCC(O)Cn2cccn2)cc1 (centres unmarked),17.3
12,CC(=O)c1c(O)cc(=O)oc1-c1ccc(C)cc1,16.7
13,O=[N+]([O-])c1cccc(/C=C/C=N/Nc2nc(N3CCCCC3)nc(N3CCCCC3)n2)c1,9.47
14,Cc1cc2nc(SCCOC(=O)Nc3cccc(Cl)c3)nc(C)c2cc1C,4.69
15,Cc1ccc(C(=O)n2c(-c3ccccc3)cnc2SCC(=O)Nc2ccc(C)cc2C)cc1,5.33
16,CN(c1ccc(C(=O)NC2CCCCC2)cc1)S(=O)(=O)c1ccccc1,-4.03
17,CC(C)c1ccc(NC(=O)N2CCN(S(=O)(=O)c3ccccc3)CC2)cc1,-11.7
18,Cn1nnnc1SCC(=O)Nc1ccc(C(=O)N2CCN(Cc3ccccc3F)CC2)cc1,-2.12
19,COc1ccc(C)cc1Nc1n[n+](C)c(-c2ccc(O)cc2O)s1.[Cl-],38.7
20,Cc1cnc(C(=O)N2CCc3c([nH]c4ccccc34)C2c2ccc(F)cc2)cn1 (centres unmarked),-39.8
21,NS(=O)(=O)c1ccc(NC(=S)N2CCN(Cc3ccc(Cl)c(Cl)c3)CC2)cc1,-0.0378
22,C#CCOCCOCCOCCNc1nc(N2CCN(C(=O)[C@H]([C@@H](C)CC)n3cc([C@@H](N)Cc4ccc(O)cc4)nn3)CC2)nc(N2CCN(C(=O)[C@H](CCCCN)n3cc([C@@H](N)C(C)CC)nn3)CC2)n1.Cl (some centres unmarked),0.064

row,Compound,"hERG current change (%, negative = inhibition) at 10uM [%]"
1,O=C(c1ccc(Cl)c([N+](=O)[O-])c1)N1CCN(C(=O)c2ccco2)CC1,-41.6
2,CCn1cc(SCC(=O)N2CCOCC2)c2ccccc21,8.42
3,CC(=O)Oc1ccc2c(C)cc(=O)oc2c1C(=O)c1ccccc1,15.7
4,CCN(C(=S)Nc1cccc(C)c1)c1ccccc1,13.2
5,Cc1cc(-c2cc(-c3ccc(Cl)cc3)on2)nc(NC2CCCC2)n1,-4.86
6,COc1cc(/C=C(\NC(C)=O)C(=O)NC(C)(C)CC(C)(C)C)ccc1OC(C)=O,-5.22
7,COc1ccc(-c2[nH]ncc2/C=C(/C#N)C(=O)NC2CCCCC2)cc1,2.85
8,COC(=O)CN1C(=O)[C@H]2[C@@H](/C=C/c3ccccc3)N3C(=O)CN(Cc4ccccc4)C(=O)[C@@]3(Cc3ccccc3)[C@H]2C1=O,-10.8
9,O=C1CC2C(=O)NCCN2C(=NC(=O)c2ccc(Cl)cc2)N1 (centres unmarked),-15.7
10,Oc1csc(Cc2nc(-c3ccc(Br)cc3)cs2)n1,16.7
11,CCN(C(=O)COC(=O)CCS(=O)(=O)c1ccc(C)cc1)C1CCS(=O)(=O)C1 (centres unmarked),12.9
12,O=C(O)Cc1ccc(S(=O)(=O)Nc2ccccc2C(=O)O)cc1,1.27
13,CCC/C(O)=C1\C(=O)CC(C)(C)CC1=Nc1ccccc1OC,-13.4
14,CN1CC[C@]23c4ccccc4N[C@H]1[C@]21CCN(C)[C@H]3Nc2ccccc21,12.3
15,Nc1cc2nc3ccccc3nc2cc1N,18.5
16,CC(=O)C1=NN(c2ccccc2)C2(S1)S/C(=C\c1ccccc1)C(=O)N2c1ccccc1 (centres unmarked),5.09
17,CCc1nc(CNC(=O)c2cc(OC)c(OC)c(OC)c2)no1,4.02
18,O=C(O)c1cc(/C=C/C(=O)c2cc(F)ccc2O)c2c(c1)COCO2,-1.67
19,CN(Cc1nc(-c2cccnc2)no1)S(=O)(=O)c1ccc2ccccc2c1,-36.4
20,CCCCN(CCCC)CP(=O)(c1ccccc1)c1ccccc1,-30.5
21,O=C(CC(C(=O)O)c1ccc(Cl)cc1Cl)c1ccc(Cl)cc1 (centres unmarked),11.4
22,O=C(NCc1ccccn1)c1cccc(NS(=O)(=O)c2ccccc2)c1,6.73

row,Compound,"hERG current change (%, negative = inhibition) at 10uM [%]"
1,CCOC(=O)c1oc2nc3c(cc2c1N)COC(C)(C)C3,11.5
2,COc1ccc(C)cc1S(=O)(=O)N(C)CC(=O)N1CCC(C)CC1,22.8
3,CC1CCc2sc(C(=O)NC3CCN(Cc4ccccc4)CC3)cc2C1 (centres unmarked),-54.1
4,C=CCOc1ccc(C(=O)N(Cc2ccc(N(C)C)cc2)C2CCS(=O)(=O)C2)cc1 (centres unmarked),-15.3
5,O=C(COc1ccc2ccc(=O)oc2c1)Nc1cccnc1,10.6
6,Cc1ccc(N2CC(C(=O)Nc3ccc(C)c(S(=O)(=O)N(C)C)c3)CC2=O)cc1 (centres unmarked),-25.2
7,Cn1nnnc1SCC1=C(C(=O)[O-])N2C(=O)[C@@H](NC(=O)[C@H](O)c3ccccc3)[C@H]2SC1.[Na+],16.1
8,CCC(C)c1ccccc1NC(=O)CN(C)CCOc1ccc(Cl)cc1 (centres unmarked),9.29
9,CCc1c(C(=O)N2CCCN(C)CC2)csc1C,-5.55
10,Cc1ccc(OCC(O)CN2CC3(C)CC2CC(C)(C)C3)cc1.O=C(O)C(=O)O (centres unmarked),-53.6
11,COc1ccc(NC(=O)CN(C)CC(=O)Nc2ccc3c(c2)CCC3)cc1,-5.02
12,COc1ccc(NC(=O)CN(C)C(=O)c2cc(C)on2)cc1,6.97
13,Cc1cc(=O)oc2cc(OCC(=O)N3CC(C)OC(C)C3)ccc12 (centres unmarked),16.7
14,O=c1[nH]cnc2c1cnn2Cc1ccccc1,20.7
15,O=C(Nc1ccccc1N1CCCC1)c1ccc(Cl)c(S(=O)(=O)N2CCOCC2)c1,-41.4
16,COC(=O)CC1NCCc2cc(OC)c(OC)cc21 (centres unmarked),5.67
17,COc1ccc([N+](=O)[O-])cc1NC(=O)CCN1CCN(C)CC1,16.3
18,COc1cccc(NC(=O)Nc2cc(C)ccc2F)c1,-14
19,COc1ccc(-c2coc3c(C)c4oc(=O)c(CCC(=O)O)c(C)c4cc23)cc1,-2.26
20,O=C(COc1ccccc1Cl)NNC(=O)c1cc(S(=O)(=O)N2CCOCC2)ccc1N1CCCC1,9.55
21,Cc1cc(C)nc(NC(=O)c2ccc(COc3ccccc3Cl)cc2)c1,24.5
22,COCCNC(=O)c1ccc2c(c1)NC(=O)CS2,11.6

row,Compound,"hERG current change (%, negative = inhibition) at 10uM [%]"
1,COCCNC(=O)CCSCc1ccccc1F,-21.6
2,CN(C)C=NC1=NN(c2cccc(C(F)(F)F)c2)CC1,-27.2
3,O=C(CSc1cn(CCNC(=O)c2ccccc2)c2ccccc12)NCC1CCCO1 (centres unmarked),-10.9
4,COc1ccc(Cl)cc1NC(=O)CN(C)CC(=O)Nc1ccc(S(N)(=O)=O)cc1,4.44
5,O=C(CSc1ccsc1[N+](=O)[O-])NCCc1ccc(Cl)cc1,15.6
6,Cc1cccc(NC(=O)c2ccc(S(=O)(=O)N3CCCC3)cc2)c1C,15.4
7,CCOC(=O)NC(=O)CSc1nc(C)cc(C)c1C#N,5.47
8,CCOC(=O)CN(c1ccccn1)S(=O)(=O)c1ccc(OC)cc1,15.3
9,CC(=O)N1CCCc2cc(S(=O)(=O)N3CCCC(C(=O)N4CCN(c5cccc(Cl)c5)CC4)C3)ccc21 (centres unmarked),1.99
10,NS(=O)(=O)c1ccc(CNC(=O)CNC(=O)Cc2ccccc2)cc1,25
11,CC(=O)NC1=NN(C(C)=O)C(c2ccccn2)S1 (centres unmarked),-0.717
12,CCc1nc(SCC(=O)Nc2nccs2)c2oc3ccccc3c2n1,11.8
13,Cc1cc(C(=O)N2CCCC(C(=O)c3cccc4ccccc34)C2)nc(C)n1 (centres unmarked),-2.09
14,Cc1ccc(SCCC(=O)N(C)C)cc1,2.14
15,O=C(NC1CCCCC1)C(c1ccco1)N(CCc1ccccc1)C(=O)C(F)(F)F (centres unmarked),-0.752
16,CCc1nnc(NC(=O)c2cccc(OC)c2)s1,5.07
17,O=C(Cc1ccccc1)Nc1cccc(-c2nnc(-c3ccco3)o2)c1,-13.8
18,CCCc1noc2c1/C(=N\O)CC(CC(C)SCC)C2 (centres unmarked),-11.1
19,CCCn1c(=N)n(CC(O)COc2ccc(C)cc2)c2ccccc21.Cl (centres unmarked),-89
20,Cc1onc(-c2ccccc2)c1C(=O)OCC(=O)N(C)c1c(N)n(Cc2ccccc2)c(=O)[nH]c1=O,3.42
